{
  "source": "ChEMBL document CHEMBL4888484",
  "about": "“Replenishing the malaria drug discovery pipeline: Screening and hit evaluation of the MMV Hit Generation Library 1 (HGL1) against asexual blood stage Plasmodium falciparum ,using a nano luciferase reporter read-out” (2022)",
  "note": "Out of some 150,000 compounds screened, about 540 (0.36%) showed an effect of 50% or more. Some of the results follow.",
  "data": [
    {"test_system": "Plasmodium falciparum", "experiment": "Primary screen in NF54 nanoGlo assay, in single point, at 2uM, 72h; a lower Z score goes with more inhibition", "format": "functional, Erythrocyte", "settings": "timepoint 72 hour", "units": {"% Inhibition": "%"}, "values": [
      {"compound": "CCCc1cnc(C)nc1N1C[C@@H](CN(C)CC)[C@@H](CO)C1", "% Inhibition": 4, "Z score": -0.62},
      {"compound": "Cn1nccc1-c1ccc(CNC(=O)c2ccccn2)cn1", "% Inhibition": 18, "Z score": -2.03},
      {"compound": "C[C@H](NCc1nc2ccccc2o1)c1ccc(S(C)(=O)=O)c(F)c1", "% Inhibition": -8, "Z score": 1.09},
      {"compound": "CCCN1CCC(N2CCC[C@H](C(=O)c3cccc(OC(C)C)c3)C2)CC1", "% Inhibition": 2, "Z score": -0.26},
      {"compound": "COc1cc2c(cc1OC)C(=O)N1CCC[C@H]1C(=O)N2", "% Inhibition": 0, "Z score": -0.09},
      {"compound": "Cc1ccc(N(C)S(=O)(=O)c2c(-c3ccccc3)csc2C(=O)NCc2ccccn2)cc1C", "% Inhibition": -9, "Z score": 1.12},
      {"compound": "Cc1c(-c2nnc(-c3ccc(F)cc3)o2)nnn1-c1nonc1N", "% Inhibition": -3, "Z score": 0.38},
      {"compound": "COc1cccc(-c2ncnc3sc(C(=O)O)c(C)c23)c1", "% Inhibition": 1, "Z score": -0.08},
      {"compound": "Cc1cc(O)nc(C(C)N2CCOC(C(C)(C)C)C2)n1", "note": "(stereo unspecified)", "% Inhibition": 7, "Z score": -1.39},
      {"compound": "CCc1cc(-c2nc(C[C@H]3CCCO3)no2)n(C)n1", "% Inhibition": -14, "Z score": 1.98},
      {"compound": "CCCNC(=O)C1CCN(S(=O)(=O)c2ccc3c(c2)CCC3)CC1", "% Inhibition": -5, "Z score": 0.67},
      {"compound": "O=C(CC1=CCCCC1)NCCN1C(=O)CCCC1=O", "% Inhibition": 9, "Z score": -1.25},
      {"compound": "O=C(Nc1cc2c(nn1)CCC2)N1CC[C@H](Nc2ncccn2)C1", "% Inhibition": -11, "Z score": 1.54},
      {"compound": "O=C(c1ccoc1)N1CC[C@H](Oc2cccc3cccnc23)C1", "% Inhibition": -16, "Z score": 3.12},
      {"compound": "CC(NC(=O)N1CCC[C@H]1COc1ccc(F)cc1)c1ccc[nH]1", "note": "(stereo partly specified)", "% Inhibition": -14, "Z score": 1.69},
      {"compound": "CC(=O)c1ccc(CNC(=O)CC[C@H]2CCCO2)nc1C", "% Inhibition": -1, "Z score": 0.16},
      {"compound": "C[C@H]1CCCN(C(=O)c2cccc(S(=O)(=O)NC3CC3)c2)C1", "% Inhibition": -12, "Z score": 1.23},
      {"compound": "Cc1nn(CCN2CCCCC2)c(C)c1S(=O)(=O)N1CCc2ccccc21", "% Inhibition": -2, "Z score": 0.37},
      {"compound": "CCCc1csc(NC(=O)N2CC[C@]3(CCN(C)C3)C2)n1", "% Inhibition": -1, "Z score": 0.28},
      {"compound": "O=C(c1ccco1)N(Cc1nccn1Cc1cccc(C(F)(F)F)c1)CC1CC1", "% Inhibition": 12, "Z score": -1.49},
      {"compound": "c1ccc(Cc2nc3c(c(N4CCOCC4)n2)C2(CCCCC2)Cc2ccccc2-3)cc1", "% Inhibition": -3, "Z score": 0.38},
      {"compound": "COCc1nc(CNC(=O)C2(Nc3ccc(C)cc3)CCCC2)no1", "% Inhibition": -3, "Z score": 0.44},
      {"compound": "Cn1ccnc1CNc1ccc(N2CCN(C(=O)OC(C)(C)C)CC2)cn1", "% Inhibition": 1, "Z score": -0.18}
    ]}
  ]
}
